Laboratory results from paper PMC4336329 (PLoS ONE, 2015).
Hit rate of the full screen: of about 310,000 compounds, about 2,200 (0.71%) showed an effect of 50% or more. The effect is printed as a negative number. The list shows a part of the results.

Target: human ether-à-go-go-related gene (hERG) potassium channel (human, UniProt Q12809)
Assay: primary screen, population patch clamp on CHO cells stably expressing hERG

human ether-à-go-go-related gene (hERG) potassium channel, sequence (Q12809 whole entry, looked up): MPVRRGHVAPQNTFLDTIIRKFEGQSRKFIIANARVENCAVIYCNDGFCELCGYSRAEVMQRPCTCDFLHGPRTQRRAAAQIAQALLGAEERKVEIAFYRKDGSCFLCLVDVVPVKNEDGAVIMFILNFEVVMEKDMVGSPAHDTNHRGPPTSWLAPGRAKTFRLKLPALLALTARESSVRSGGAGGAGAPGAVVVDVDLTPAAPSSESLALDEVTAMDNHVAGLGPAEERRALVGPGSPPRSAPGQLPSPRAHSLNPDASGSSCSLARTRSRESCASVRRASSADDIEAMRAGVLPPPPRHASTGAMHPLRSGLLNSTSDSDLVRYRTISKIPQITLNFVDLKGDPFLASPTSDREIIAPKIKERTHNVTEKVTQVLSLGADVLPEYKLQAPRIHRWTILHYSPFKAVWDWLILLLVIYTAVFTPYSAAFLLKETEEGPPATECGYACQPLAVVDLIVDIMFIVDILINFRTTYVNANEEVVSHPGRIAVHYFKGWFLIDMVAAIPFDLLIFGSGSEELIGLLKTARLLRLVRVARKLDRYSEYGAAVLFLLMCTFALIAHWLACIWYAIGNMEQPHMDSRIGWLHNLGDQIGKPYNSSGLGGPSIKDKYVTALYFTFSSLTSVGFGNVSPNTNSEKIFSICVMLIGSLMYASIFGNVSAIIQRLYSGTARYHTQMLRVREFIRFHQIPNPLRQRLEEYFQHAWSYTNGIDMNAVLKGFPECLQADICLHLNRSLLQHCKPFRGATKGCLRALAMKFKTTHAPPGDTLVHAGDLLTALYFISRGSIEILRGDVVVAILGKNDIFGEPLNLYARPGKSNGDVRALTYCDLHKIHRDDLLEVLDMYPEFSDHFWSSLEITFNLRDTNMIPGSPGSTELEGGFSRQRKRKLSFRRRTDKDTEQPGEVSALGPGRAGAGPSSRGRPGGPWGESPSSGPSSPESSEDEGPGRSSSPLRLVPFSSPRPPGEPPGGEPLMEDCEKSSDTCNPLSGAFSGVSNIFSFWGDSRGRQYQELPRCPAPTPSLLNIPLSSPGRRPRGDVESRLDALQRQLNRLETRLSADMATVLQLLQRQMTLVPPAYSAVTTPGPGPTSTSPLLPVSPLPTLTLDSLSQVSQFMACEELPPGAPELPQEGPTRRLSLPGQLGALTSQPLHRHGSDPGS

Row | Compound | hERG current change (%, negative = inhibition) at 1uM [%]
1 | O=C(NC(c1ccccc1)c1c(O)ccc2ccccc12)c1ccccc1Cl (stereo not drawn) | 11.3
2 | O=C(N/N=C\C=C\c1ccc2c(c1)OCO2)c1cccnc1 | -7.88
3 | COc1cccc2cc(C(=O)NCc3ccccc3Br)c(=O)oc12 | 19.6
4 | C=CCNC(=S)NNC(=O)c1ccc(OCC(C)C)cc1 | -9.6
5 | CCOc1ccccc1NC(=O)CCNS(=O)(=O)c1ccc2[nH]c(=O)oc2c1 | 11.6
6 | CCOc1cc(/C=N\NC(=O)c2c(C)nc3ccccn23)ccc1O | 14.9
7 | COc1ccc2c(c1)C1NC(=S)NC(C)(O2)C1C(=O)Nc1ccc(Cl)cc1 (stereo not drawn) | 1.68
8 | O=C(NCCCc1ccccc1)c1cnc2n(c1=O)CCS2 | 11
9 | COc1ccc(-c2nnn(CC(=O)N(CCCO)C(C(=O)NC3CCCC3)c3ccc(F)cc3)n2)cc1 (stereo not drawn) | 9.11
10 | COC(=O)Cn1nnc(-c2cccc(OC)c2)n1 | -0.284
11 | Cc1ccc(NC(=O)n2ncc3c(C)cccc32)c(C)c1 | 13.6
12 | COc1cccc(CN(C(=O)COc2ccc(C)cc2)C2CCS(=O)(=O)C2)c1 (stereo not drawn) | 6.26
13 | CC1Nc2ncnc(N3CCOCC3)c2N(Cc2ccccc2)C1=O.O=C(O)C(F)(F)F (stereo not drawn) | 13
14 | O=C(NCCCCC(NC(=O)c1ccc([N+](=O)[O-])cc1)C(=O)O)c1ccc([N+](=O)[O-])cc1 (stereo not drawn) | -6.29
15 | COC(=O)[C@H](Cc1ccccc1)NC(=O)N1CCN(c2ccccc2)CC1 | 3.46
16 | CCOC(=O)c1ccc(NC(=S)NN2CCOCC2)cc1 | 0.0656
17 | CCOc1ccc(C(=O)N(Cc2ccc(N(C)C)cc2)C2CCS(=O)(=O)C2)cc1 (stereo not drawn) | 0.167
18 | CC1CN(C(=O)c2cc([N+](=O)[O-])cc([N+](=O)[O-])c2)CC(C)O1 (stereo not drawn) | 15.1
19 | CNc1ccccc1-n1ccc(-c2ccccc2)n1 | 7.79

Row | Compound | hERG current change (%, negative = inhibition) at 1uM [%]
20 | Cc1c(C(=O)/C=C/c2cccs2)oc2ccc(F)cc12 | 16.7
21 | CC(C)CC(=O)Nc1nc2ccc(S(=O)(=O)N3CCOCC3)cc2s1 | 8.91
22 | CC1(C)Cc2c(c(N3CCCC3)[nH]c(=S)c2C#N)CO1 | 8.08
23 | Cc1ccsc1/C=C(\C#N)C(=O)NCc1ccco1 | 5.27
24 | COc1ccccc1-c1nnc(C2CCN(S(=O)(=O)c3ccc([N+](=O)[O-])cc3)CC2)o1 | -43.8
25 | CC1=CC2=NC(=O)CC(C)(C(=O)N(CC(=O)NC(C)(C)C)C3CCCC3)N2C=C1 (stereo not drawn) | 3.74
26 | c1ccc(-c2nc(-c3cccnc3)n[nH]2)cc1 | 9.51
27 | O=c1c2cc(Cl)ccc2[nH]c(=S)n1Cc1ccccn1 | 15.5
28 | CC(c1ccon1)N(C)C(=O)CCc1nnc(CCCCc2ccccc2)o1 (stereo not drawn) | -9.32
29 | CCOC(=O)c1cccc(NC(=O)Nc2ccc(OCC)cc2)c1 | 5.89
30 | CCn1cc([N+](=O)[O-])c(C(=O)Nc2nc3ccc(OC)cc3s2)n1 | 22.5
31 | CCCCn1c(CNC(=O)C23CC4CC(CC(C4)C2)C3)nnc1SCC(=O)Nc1nnc(C)s1 | 5.13
32 | CCOc1ccc(Nc2nc3ccccc3c(=O)s2)cc1 | 13.9
33 | C=CCOc1ccc(C2N3CC4(C)CN2CC(CCC)(C3)C4=O)cc1 (stereo not drawn) | 5.52
34 | CCCCc1cc(=O)oc2cc(C)cc(OCC(=O)Nc3ccccn3)c12 | 24.5
35 | C=CCNC(=O)C1CC2Cn3c(nc4cc(C)c(C)cc43)C2N1C (stereo not drawn) | 4.68
36 | COc1ccc(N2CCN(C(=O)COC(=O)CCOc3ccc(C(C)(C)C)cc3)CC2)cc1 | 22.1
37 | Cc1cc(NC(=O)COC(=O)CNC(=O)c2cccs2)c([N+](=O)[O-])cc1C | 2.85
38 | Cc1cc(C)c2c(n1)SCC(=O)N2CC(=O)Nc1ccc(F)cc1 | 2.57

Row | Compound | hERG current change (%, negative = inhibition) at 1uM [%]
39 | COc1ccc(OCC(O)CNC(=O)c2ccc(OC)cc2)cc1 (stereo not drawn) | 12.7
40 | O=C(Nc1ccc(S(=O)(=O)N2CCCCCC2)cc1)c1[nH]ncc1[N+](=O)[O-] | 35
41 | COc1ccc(CC(=O)NC(C)c2nnc(SCC(=O)Nc3ccccc3)n2C)cc1 (stereo not drawn) | 12.5
42 | COc1cccc(OC)c1C(=O)Nc1cc(C)nn1-c1nc2ccccc2[nH]1 | 11.7
43 | CCCCCn1c(SCC2CCCO2)nc2cc(C(=O)N3CCC(C(N)=O)CC3)ccc2c1=O (stereo not drawn) | -33.9
44 | Cc1cccc(C(=O)NNC(=S)NC(=O)c2ccccc2)c1 | 13.6
45 | N#Cc1ccc(OC(=O)C2CCN(C3=NS(=O)(=O)c4ccccc43)CC2)cc1 | 8.56
46 | Cc1ccc(-c2nn(-c3ccccc3)cc2CNCc2ccccc2)cc1.Cl | 8.51
47 | Cc1ccc(C(=O)NCC(c2ccc(F)cc2)N2CCOCC2)cc1 (stereo not drawn) | 12.4
48 | CC(C#N)Sc1ccc(S(=O)(=O)N2CCCCC2)cn1 (stereo not drawn) | 4.24
49 | COc1ccc(OCCOc2ccc(/C=C3\C(=N)N4N=C(C)SC4=NC3=O)cc2)cc1 | 12.3
50 | N=C1S/C(=C\c2ccco2)C(=O)N1c1nccs1 | 15.3
51 | Cc1ccc(NC(=O)C2(C)Cc3ccccc3C(=O)O2)cc1 (stereo not drawn) | 3.78
52 | c1ccc(-c2[nH]ncc2CN2CCc3ccccc3C2)cc1 | 11.7
53 | Cc1nc2ccc(OC(=O)c3ccccc3)cc2s1 | 9.01
54 | O=C(O)CCSSCCC(=O)O | 5.89
55 | Cl.OCCN1CCN(c2nc3ccccc3nc2-c2ccccc2)CC1 | 3.58
56 | Cc1nc2ccc(NC(=O)c3cc(Cl)ccn3)cc2s1 | 10.2
57 | CCn1c(CNC(=O)c2cccs2)nnc1SCC(=O)Nc1ccc(Cl)cc1 | -14.2
